# Assay results reported in PubChem BioAssay AID686979 (National Center for Advancing Translational Sciences (NCATS), 2013).
# Values joined by “and” are separate entries in the source; they are usually repeats but may differ in a detail not shown here. Equal values may be shown once. About 50,000 (12%) of roughly 420,000 compounds were called active. Inconclusive results, whose numbers are uncertain, are shown with a selection of clear calls. Calls come from the whole dose curve; as a rule, active = well fitted inhibition curve with a large enough effect; inconclusive = small, poorly fitted or top-dose-only effect; inactive = flat fitted curve, though single readings scatter. A potency beside an inconclusive call is a rough fit, not a confirmed value.
# Experiment: qHTS for Inhibitors of human tyrosyl-DNA phosphodiesterase 1 (TDP1): qHTS in cells in presence of CPT; note: nearly all actives have a fitted effect of over 55% in size
# Conditions: chicken DT40 Tdp1-/-;hTDP1 cells + 20 nM CPT, ATP luminescence, 48 h; activity change, negative = growth inhibition: at 46.2 µM (top of the series)
# Outline: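 Chicken DT40 Tdp1-/- cells complemented with human TDP1, 400 cells/well, exposed to compounds plus 20 nM camptothecin for at least 48 h at 37 C; viability read as ATP content by CellTiter-Glo luminescence.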
# % is set by controls: 0 for no effect and ±100 for the full control effect; potency is the fitted concentration of half-maximal effect; tags give direction and shape of the fitted curve.
SMILES,Potency,"activity change, negative = growth inhibition"
Cc1ccc(N(Cc2ccc(C(=O)NCCSc3ccccn3)cc2)S(C)(=O)=O)cc1C,"inconclusive: 29.1 µM [inhibitor, single point]",
Cc1nc([N+](=O)[O-])c(N2CCN(Cc3ccccc3)CC2)n1Cc1ccccc1,"inconclusive: 29.1 µM [inhibitor, single point]",
CCOc1ccc2nc(N3CCC(C(=O)NC4CCCCC4)CC3)sc2c1,"inconclusive: 29.1 µM [inhibitor, single point]",
O=C(c1ccco1)N1CCN(CCCCN2C(=O)c3ccccc3C2=O)CC1,inactive,
O=C(NC1CCCCC1)c1ccc(NS(=O)(=O)c2cccc3cccnc23)cc1,"inconclusive: 23.1 µM [inhibitor, partial curve]",
CCOc1cc(-c2nc(-c3ccc(-c4ccc(C)cc4)nc3OC)no2)cc(OCC)c1OCC,"inconclusive: 16.4 µM [inhibitor, single point]",
Cc1ccc(Cl)cc1N1CCN(C(=O)C2CCN(S(C)(=O)=O)CC2)CC1,"inconclusive: 25.9 µM [inhibitor, single point]",
COc1cc(OC)c(/C=C/c2cc[n+](C)c3ccccc23)c(OC)c1,active: 0.501 µM,
CCOc1ncccc1C(=O)OCC(=O)c1cc(OC)c(OC)c(OC)c1,inactive,
CN(C(=O)c1cc(S(=O)(=O)N2CCOCC2)cs1)c1ccccc1,inactive,
CN(C)S(=O)(=O)n1cc(/C=C(\NC(=O)c2ccccc2F)C(=O)N2CCCCC2)c2ccccc21,inactive,
O=C(Cn1cc(C(F)(F)F)ccc1=O)N/N=C/c1ccccc1O,active: 16.4 µM,
COc1cc(C(=O)OC(C)c2ccc(F)cc2)ccc1OCC(=O)N1CCOCC1 (stereo not given),"inconclusive: 23.1 µM [inhibitor, single point]",
COC(=O)C1=NN(C(=O)c2ccccc2)C(C)(O)C1 (stereo not given),"inconclusive: 29.1 µM [inhibitor, single point]",
CCO[C@H]1OC(C(=O)N2CCN(Cc3ccc4c(c3)OCO4)CC2)=C[C@@H](C(C)(C)C)[C@@H]1CCCO,"inconclusive: 29.1 µM [inhibitor, single point]",
CC1CCCC(n2c(=S)[nH]c3ccccc3c2=O)C1C (stereo not given),"inconclusive: 29.1 µM [inhibitor, single point]",
Cc1ccc(C(=O)NC(=S)NNC(=O)c2ccccc2O)cc1,"inconclusive: 29.1 µM [inhibitor, single point]",
CCOC(=O)c1ccc(NC(=O)c2cc3cc(C)ccc3n2C)cc1,"inconclusive: 14.6 µM [inhibitor, partial curve]",
C=CCNC(=S)NNC(=O)COc1cccc(Cl)c1,inactive,
O=C(Nc1nnc(-c2cccs2)o1)c1cccc(Oc2ccccc2)c1,active: 10.3 µM,
COC(=O)c1ccc(Cl)cc1NC(=O)N1CC(C)Oc2ccccc21 (stereo not given),"inconclusive: 20.6 µM [inhibitor, single point]",
Cc1sc(NC(=S)NC(=O)c2ccccc2)c(C#N)c1C,"inconclusive: 29.1 µM [inhibitor, single point]",
COc1ccc(-c2cc(N3CCN(CCO)CC3)n3nccc3n2)cc1,inactive,
Cc1cccc(-n2ncc3c(NCCN4CCOCC4)ncnc32)c1,inactive,

SMILES,Potency,"activity change, negative = growth inhibition"
C=CCNC(=O)c1cn(CC)c2cc(N3CCN(C(=O)c4ccco4)CC3)c(F)cc2c1=O,active: 23.1 µM,
CSc1ccc(CN2CCC(CO)(Cc3ccc(Cl)cc3)CC2)cc1,"inconclusive: 29.1 µM [inhibitor, single point]",
Fc1ccc(CNCCC(Cc2ccccc2)c2ccco2)cc1 (stereo not given),inactive,
COc1ccc(-c2cc(C(=O)N3CCN(c4ncccn4)CC3)c3ccccc3n2)c(OC)c1,"inconclusive: 20.6 µM [inhibitor, single point]",
COc1cc(CN2CCNC(=O)C2CC(=O)N(C)Cc2ncc[nH]2)cc(OC)c1 (stereo not given),inactive,
Cc1cc(NS(=O)(=O)c2ccc(NC(=O)COc3ccc(Cl)cc3)cc2)nc(C)n1,"inconclusive: 20.6 µM [inhibitor, single point]",
O=C(CNC(=O)c1cc(Cl)cc([N+](=O)[O-])c1)NC1CC1,inactive,
COc1ccc([N+](=O)[O-])cc1NC(=O)C(C)OC(=O)C1CCC1 (stereo not given),inactive,
COC(=O)C1=C(C(=O)OC)[C@@H]2N(C)c3ccc(OC)cc3[C@@]23C[C@@H](C(=O)OC)N(C(=O)c2cc(C)oc2C)C3=N1,active: 23.1 µM,
COc1ccc(Br)cc1/C=N/NC(=O)CN1CCN(Cc2ccccc2)CC1,inactive,
CC(C)Sc1sc(C(=O)O)c(-c2ccc(Cl)cc2)c1C#N,inactive,
Cc1cccc2c(=O)n(C(=O)c3ccccc3)c(N)nc12,"inconclusive: 20.6 µM [inhibitor, single point]",
CCOC(=O)c1cc(-c2ccc(F)cc2)n(CC(=O)N2CCCC2)c1C,inactive,
Cc1cccc(N2CCN(S(=O)(=O)c3ccc4c(c3)CCCN4C(=O)C3CCC3)CC2)c1C,"inconclusive: 20.6 µM [inhibitor, single point] and inconclusive: 18.4 µM [inhibitor, single point]",
C[C@]12CCC(=O)C=C1CC[C@@H]1[C@@H]2[C@@H](O)C[C@@]2(C)[C@H]1CC[C@]2(O)C(=O)COC(=O)CCC(=O)O,"inconclusive: 9.44 µM [inhibitor, partial curve, poor fit]",
Cc1ccc(S(=O)(=O)N2CCOCC2)cc1NC(=O)COc1ccc2c(C)cc(=O)oc2c1,"inconclusive: 18.4 µM [inhibitor, single point]",
CCOc1ccccc1/C=C/c1onc(C)c1S(=O)(=O)N1CCC(C(=O)NC(C)(C)C)CC1,"inconclusive: 6.51 µM [inhibitor, single point]",
O=C(COC(=O)c1cc(Br)ccc1O)Nc1ccc2c(c1)OCO2,"inconclusive: 29.1 µM [inhibitor, single point]",
O=P(Cc1cccc2ccccc12)(c1ccccc1)c1ccccc1,"inconclusive: 18.4 µM [inhibitor, single point]",
Cc1ccc(Cl)cc1N1CCN(C(=O)CSc2nnc3n2C(C)(C)Cc2ccccc2-3)CC1,active: 9.2 µM,
O=C1COc2ccc(C(=O)COC(=O)c3nc(Cl)ccc3Cl)cc2N1,"inconclusive: 0.517 µM [inhibitor, full curve]",
CCNc1nc(SCCOc2ccccc2)nc(N(C)C)n1,"inconclusive: 20.6 µM [inhibitor, single point]",
CC(C)N1C/C(=C/c2ccsc2)C(=O)/C(=C/c2ccsc2)C1,active: 2.91 µM,
Cc1onc(-c2ccccc2)c1C(=O)N/N=C/c1cc2c(cc1Br)OCO2,,inconclusive: -31.3% [inhibitor]

SMILES,Potency,"activity change, negative = growth inhibition"
CSc1nsc(NC(=O)Cc2ccccc2)n1,"inconclusive: 13 µM [inhibitor, single point]",
CCN(CC)c1ccc(NC(=O)C(Cc2ccccc2)NS(=O)(=O)c2ccc(Br)s2)c(C)c1 (stereo not given),"inconclusive: 18.4 µM [inhibitor, single point]",
CN(C)c1ccc(/C=C/c2ccnc3ccccc23)cc1O,active: 11.2 µM,
COc1ccc2[nH]cc(C(O)CN3CCN(c4ccccc4F)CC3)c2c1 (stereo not given),"inconclusive: 11.6 µM [inhibitor, single point]",
CC1=C(C(=O)Nc2ccc(CC(=O)NCc3ccc(OC(C)C)cc3)cc2)SCCO1,active: 0.164 µM,
O=C(c1ccc(Cl)c(S(=O)(=O)N2CCOCC2)c1)N(Cc1ccco1)Cc1cccs1,"inconclusive: 29.1 µM [inhibitor, single point]",
COc1ccc2cc3c(N)nn(C(=O)Cc4c[nH]c5ccccc45)c3nc2c1,active: 10.3 µM,
Cc1nc(NC(=O)c2ccc(Br)o2)sc1C,,inconclusive: -31.7% [inhibitor]
O=C(Nc1cccc(Cl)c1)c1c(NC(=O)C(F)(F)F)sc2c1CCCC2,active: 6.51 µM,
Cc1sc2nc(SCC(=O)N(C)c3ccccc3)n(C)c(=O)c2c1C,active: 18.4 µM,
COC(=O)Cc1ccc(N(Cc2ccccc2F)S(=O)(=O)c2ccc(Br)cc2)cc1,"inconclusive: 23.1 µM [inhibitor, single point]",
O=C(c1ccco1)N1CCN(Cc2cccc(C(F)(F)F)c2)CC1,"inconclusive: 9.2 µM [inhibitor, single point]",
CS(=O)(=O)c1ccc(Nc2nc(C(N)c3ccccc3)cs2)cc1 (stereo not given),"inconclusive: 29.1 µM [inhibitor, single point]",
O=C(CSC1=Nc2ccccc2C2=NC(CC(=O)NCc3ccco3)C(=O)N12)NCc1ccco1 (stereo not given),inactive,
O=C(Nc1cccc(F)c1)C1CCCN(C(=O)c2ccc(Cl)cc2)C1 (stereo not given),active: 20.6 µM,
COc1ccc(CCNCc2c(C(=O)O)c(C)n(Cc3ccccc3C)c2C)c(OC)c1,"inconclusive: 29.1 µM [inhibitor, single point]",
CC(C)(C)c1ccc(-c2n[nH]c(=S)n2Cc2ccccc2)cc1,"inconclusive: 20.6 µM [inhibitor, single point]",
Cc1ccc(S(=O)(=O)N2CCCC2CNC(=O)c2ccc(F)c(F)c2)cc1 (stereo not given),"inconclusive: 29.1 µM [inhibitor, single point]",
O=C(Nc1cccc(Cl)c1)Nc1cccc(C(=O)O)c1,inactive,
Cc1ccc(Cn2nnc3c(=O)[nH]c(C4CCN(S(=O)(=O)/C=C/c5ccccc5)CC4)nc32)cc1,"inconclusive: 29.1 µM [inhibitor, single point]",
COc1ccc(-c2cc(-c3ccccc3)nc(SCC(=O)Nc3ncc(C)s3)c2C#N)cc1,inactive,
CCOc1ccccc1N(C)C(=O)Cn1cnc2sc(C)c(S(=O)(=O)N3CCC(C)CC3)c2c1=O,"inconclusive: 16.4 µM [inhibitor, single point]",
